PubChem BioAssay AID1508623 (National Center for Advancing Translational Sciences (NCATS), 2021)
Screen size: about 48,000 compounds; about 450 (0.94%) were called active. Another 19% or so got no clear call; they are omitted. The call rests on the fitted dose curve; in most records, active means well fitted inhibition curve with a large enough effect; inconclusive means small, poorly fitted or top-dose-only effect; inactive means no such curve, though single readings can be large or run the other way. This is one part of the list.

Experiment: Primary qHTS for Identification of Small Molecule Inhibitors of Huntingtin Promoter Activity; further: nearly all actives have a fitted effect of over 50% in size
Settings: HEK293 HTT promoter firefly luciferase reporter (activity 0% = vehicle and -100% = no light), 24 h; series mostly up to 57.5 µM; activity change, negative = inhibition: at the top concentration
How it was run: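 Luminescence was read after Dual-Glo reagent and a 10 min room-temperature incubation. Values were normalized to vehicle (0% activity) and zero RLU (-100% activity). Reporter HEK293 cells had been exposed to compounds (up to 57.5 uM final) for 24 h.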

Row | SMILES | activity change, negative = inhibition
1 | Cc1ccc(NCc2nc3ccccc3n2CCOc2ccccc2C)cc1 | inactive: -24.9%
2 | COc1cc(OC)cc(-c2nc3nc(C)c(CCC(=O)Nc4ccc(C)cc4)c(C)n3n2)c1 | inactive: 3.59%
3 | CCNc1nc2c(c(=O)n(C)c(=O)n2C)n1CC(O)COc1ccccc1 (configuration not stated) | inactive: -21.9%
4 | COC(=O)c1cc(NC(=O)c2cnc(SC)nc2-c2ccccc2)cc(C(=O)OC)c1 | inactive: -16.5%
5 | Cc1cc2c(cc1S(=O)(=O)CCC(=O)Nc1ccc(OC(F)(F)F)cc1)OCC(=O)N2 | inactive: -10.3%
6 | COc1ccc(NC(=O)Nc2cccc(C)n2)c(OC)c1 | inactive: 40%
7 | Cc1c2cnn(CC(=O)O)c(=O)c2c(C)n1Cc1cccc(Cl)c1 | inactive: -13.6%
8 | O=C(CC1N=C2c3ccccc3N=C(SCc3ccc(Cl)cc3)N2C1=O)NC1CCCCC1 (configuration not stated) | inactive: 0.982%
9 | Cc1ccc(CNC(=O)COCc2cc(-c3ccc4c(c3)OCO4)on2)cc1 | inactive: -20.2%
10 | CCOc1ccc(S(=O)(=O)c2cn(Cc3ccc(C)cc3)c3ccc(OC)cc3c2=O)cc1 | inactive: -32.4%
11 | CCOc1ccc2cc(-c3nnc(Nc4ccccc4F)s3)c(=O)oc2c1 | inactive: 29%
12 | Cc1ccc(-c2cnc(NCc3ccc(C(C)C)cc3)n2C)cc1 | inactive: -16.1%
13 | O=C(NCc1cccc(Br)c1)c1ccc(-n2cnc3cccnc32)cc1 | inactive: -19.4%
14 | Cc1ccc(Cl)cc1N1CCN(C(=O)c2cn(C)c3ccc(S(=O)(=O)N4CCC(C)CC4)cc3c2=O)CC1 | inactive: 48.5% [at 11.5 µM]
15 | O=C(NCC(c1ccc(Cl)cc1)N1CCCCC1)c1ccccc1 (configuration not stated) | inactive: -11%
16 | CCCOc1ccc(C(=O)N(Cc2cccs2)C2CCS(=O)(=O)C2)cc1 (configuration not stated) | inactive: -25.6%
17 | CCOc1cccc(C2c3[nH]c4ccccc4c3CCN2C(=O)CCc2ccccc2)c1 (configuration not stated) | inactive: -24.6%
18 | CCOC(=O)c1nc(Nc2ccccc2C)c2ccccc2n1 | inactive: -26.4%
19 | O=C(NCc1noc2ccccc12)Nc1ccc(F)cc1F | inactive: -5.68%
20 | CCN(CC)S(=O)(=O)c1ccc2nc(NC(=O)c3ccc(Br)o3)sc2c1 | inactive: 15.1%
21 | O=C(Nc1nc2ccc(Cl)cc2s1)c1ccc(S(=O)(=O)N2CCCC2)cc1 | inactive: 1.64%
22 | COc1ccc(C)cc1NC(=O)CN1C(=O)COc2ccc(S(=O)(=O)N3CCCCCC3)cc21 | inactive: -9.08%
23 | CC1CC2C3CCC4=CC(=O)C=C[C@]4(C)[C@@]3(F)[C@@H](O)C[C@]2(C)[C@@]1(O)C(=O)CO (some centres not stated) | inactive: -6.94%
24 | CC(C)c1ccc(NC(=O)CN2C(=O)c3cccc4cccc2c34)cc1 | inactive: -1.01%
25 | CCCN(CCC)S(=O)(=O)c1ccc(C(=O)O)cc1 | inactive: 1.59%
26 | CCc1ccc(S(=O)(=O)c2cn(C)c3cc(OC)c(OC)cc3c2=O)cc1 | inactive: -19.3%
27 | CCOc1ccccc1CNC(=O)CSc1n[nH]c(-c2ccccc2Cl)n1 | inactive: -19.4%
